Consider 42 compounds from PMC4336329 (PLoS ONE, 2015).

The whole screen tested about 310,000 compounds, of which about 14,000 (4.5%) showed an effect of 50% or more. Effects have a minus sign here. Some of the results follow.
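Further: peak tail current of the secondary pulse compared with the same well before compound.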

This assay deals with human ether-à-go-go-related gene (hERG) potassium channel (human, UniProt Q12809). Briefly: primary screen, population patch clamp on CHO cells stably expressing hERG.
human ether-à-go-go-related gene (hERG) potassium channel, sequence (Q12809 whole entry, looked up): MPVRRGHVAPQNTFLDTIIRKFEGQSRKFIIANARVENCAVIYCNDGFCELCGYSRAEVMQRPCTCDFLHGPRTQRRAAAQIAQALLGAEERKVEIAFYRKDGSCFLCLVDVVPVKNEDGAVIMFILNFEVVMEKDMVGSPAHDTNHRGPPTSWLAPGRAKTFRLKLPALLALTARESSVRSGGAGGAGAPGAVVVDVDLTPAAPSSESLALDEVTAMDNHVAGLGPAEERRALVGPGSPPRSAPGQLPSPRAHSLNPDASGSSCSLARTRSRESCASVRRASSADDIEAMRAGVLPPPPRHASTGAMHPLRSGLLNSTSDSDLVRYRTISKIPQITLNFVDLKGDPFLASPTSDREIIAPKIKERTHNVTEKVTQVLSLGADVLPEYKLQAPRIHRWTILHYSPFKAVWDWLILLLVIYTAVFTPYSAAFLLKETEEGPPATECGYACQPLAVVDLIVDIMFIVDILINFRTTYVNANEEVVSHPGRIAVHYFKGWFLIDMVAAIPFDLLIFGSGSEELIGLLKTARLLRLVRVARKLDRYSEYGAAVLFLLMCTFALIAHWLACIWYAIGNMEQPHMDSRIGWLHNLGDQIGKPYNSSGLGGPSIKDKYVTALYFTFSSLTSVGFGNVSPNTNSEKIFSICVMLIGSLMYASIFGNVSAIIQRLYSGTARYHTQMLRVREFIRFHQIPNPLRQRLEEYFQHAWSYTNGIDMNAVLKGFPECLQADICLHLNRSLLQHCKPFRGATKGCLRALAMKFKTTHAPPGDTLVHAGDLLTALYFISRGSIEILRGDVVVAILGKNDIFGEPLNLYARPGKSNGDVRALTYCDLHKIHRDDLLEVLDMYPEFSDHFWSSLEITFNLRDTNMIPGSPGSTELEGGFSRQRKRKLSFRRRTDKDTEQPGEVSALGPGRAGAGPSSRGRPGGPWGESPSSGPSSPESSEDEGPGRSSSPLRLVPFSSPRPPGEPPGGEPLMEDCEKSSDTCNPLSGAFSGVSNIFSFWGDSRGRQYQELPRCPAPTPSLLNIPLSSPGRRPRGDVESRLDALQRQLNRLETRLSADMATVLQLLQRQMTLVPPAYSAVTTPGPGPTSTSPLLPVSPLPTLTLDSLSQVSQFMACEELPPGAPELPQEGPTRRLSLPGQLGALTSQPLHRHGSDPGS
With `CN(c1ccccc1)S(=O)(=O)c1cccc(NC(=O)CSc2nnc(C3CC3)n2C)c1`, the “hERG current change (%, negative = inhibition) at 10uM” value is listed as -30.9%. In the case of `O=C(COc1nc2ccccc2nc1N1CCOCC1)Nc1ccc(S(=O)(=O)N2CCCC2)cc1`, the “hERG current change (%, negative = inhibition) at 10uM” value is -8.37%. Turning to `CCOC(=O)C(NC(=O)Nc1ncccn1)(Oc1ccccc1)C(F)(F)F` (stereo not drawn), the “hERG current change (%, negative = inhibition) at 10uM” value is reported as -9.7%. Turning to `O=C(c1ccccc1)N1CCN(C(=O)C23CC4CC(CC(C4)C2)C3)CC1`, the “hERG current change (%, negative = inhibition) at 10uM” value was 2.29%.

On to `CC(C(=O)Nc1ccccc1)c1ccc(-c2ccccc2)c(F)c1` (stereo not drawn), for which the “hERG current change (%, negative = inhibition) at 10uM” value is given as -0.245%.

`Cc1nn(S(=O)(=O)c2ccc(C(C)(C)C)cc2)c(C)c1S(=O)(=O)N1CCOCC1`: the “hERG current change (%, negative = inhibition) at 10uM” value is 18.1%. In the case of `COc1ccc([N+](=O)[O-])cc1C1NN=C(c2cccc3ccccc23)S1` (stereo not drawn) it was -1.53%; in that of `CN(c1ccccc1)S(=O)(=O)c1ccc(-c2ccccc2)cc1`, 15.1%. Consider `O=C(COC(=O)/C=C/c1ccc(Cl)cc1)NCCN1C(=O)CSC1=O`, for which the “hERG current change (%, negative = inhibition) at 10uM” value is recorded as -21.2%. As for `CC(=O)OCC1OC(Nc2cccc(C)c2)C(OC(C)=O)C(OC(C)=O)C1OC(C)=O` (stereo not drawn), the “hERG current change (%, negative = inhibition) at 10uM” value is recorded as -6.61%. As to `CCOC(=O)c1c(C)[nH]c(C(=O)COC(=O)c2ccc(F)c(S(=O)(=O)N3CCOCC3)c2)c1C`, the “hERG current change (%, negative = inhibition) at 10uM” value is recorded as 15.1%. In the case of `CCOc1ccc(CCNC(=O)C(O)c2ccccc2)cc1` (stereo not drawn), the “hERG current change (%, negative = inhibition) at 10uM” value stood at 4.11%. `CN(C)CCNC(=O)c1ccc(Cl)s1`: the “hERG current change (%, negative = inhibition) at 10uM” value was -2.03%. For the compound `COC(=O)c1ccc(CSC2=NCCS2)cc1`, the “hERG current change (%, negative = inhibition) at 10uM” value worked out at 1.43%.

Take `COc1ccccc1C(=O)NCCC(=O)Nc1ccc(S(=O)(=O)N2CC(C)CC(C)C2)cc1` (stereo not drawn): the “hERG current change (%, negative = inhibition) at 10uM” value was found to be 10.6%. In the case of `O=C(COc1ccc(Cl)cc1Cl)NCCCCc1ccccc1`, the “hERG current change (%, negative = inhibition) at 10uM” value came to 16%.

As to `CCc1ccccc1-n1c(SCC(=O)NC)nnc1-c1cccnc1`, the “hERG current change (%, negative = inhibition) at 10uM” value came to 12.8%. Take `Cn1c(=O)c2c(nc(SCC(=O)NCc3ccco3)n2C)n(C)c1=O`: the “hERG current change (%, negative = inhibition) at 10uM” value is -6.67%. In the case of `COc1ccc(NS(=O)(=O)c2ccc(OCC(=O)N3CCOCC3)cc2)cc1`, the “hERG current change (%, negative = inhibition) at 10uM” value is recorded as 8.44%.

With `Fc1ccc(-[n+]2nc(Nc3ccccc3)sc2-c2c(Cl)cccc2Cl)cc1.[Cl-]`, the “hERG current change (%, negative = inhibition) at 10uM” value was -64%.

Turning to `Cc1ccc(-n2c(SCC(N)=O)nnc2-c2ccco2)cc1`, the “hERG current change (%, negative = inhibition) at 10uM” value came out at 3.93%. Consider `Cc1ccc2cccc(S(=O)(=O)N3CCN(c4cccc(Cl)c4)CC3)c2n1`, for which the “hERG current change (%, negative = inhibition) at 10uM” value is recorded as -2.91%. In the case of `O=[N+]([O-])c1cccc(S(=O)(=O)N2CCN(S(=O)(=O)N3CCOCC3)CC2)c1` it was 17.4%; in that of `COc1ccc2c(c1OC)CN(C)CCc1cc3c(cc1C(O)C2)OCO3` (stereo not drawn), -27.1%; in that of `CCOc1nc2cnccc2n(CC(=O)Nc2cccc(C)c2C)c1=O`, 1.36%. For `CC1CCCN(C(=O)CN2CCN(C(=O)c3ccco3)CC2)C1` (stereo not drawn), the “hERG current change (%, negative = inhibition) at 10uM” value is reported as 4.68%. With `Cc1c(-c2ccn[nH]2)cc(NC(=O)c2ccc(Cl)cc2)c(=O)n1N`, the “hERG current change (%, negative = inhibition) at 10uM” value is -4.25%. Regarding `COc1cccc(NC(=O)CCNC(=O)c2ccccc2Cl)c1`, the “hERG current change (%, negative = inhibition) at 10uM” value was found to be 5.86%. Consider `CCc1cc2c(NCCN3CCCCC3)ncnc2s1.Cl`, for which the “hERG current change (%, negative = inhibition) at 10uM” value is -71.9%. Regarding `CCOC(=O)c1c(C)[nH]c(C(=O)COC(=O)CSC)c1C`, the “hERG current change (%, negative = inhibition) at 10uM” value is given as 4.01%. For `COc1ccc(NC(=O)CSc2nc3ccccc3n2-c2ccccc2)c([N+](=O)[O-])c1` the value was 6.53%.

As to `Cc1cccc(N2C(=O)CN(Cc3cccs3)C2=S)c1`, the “hERG current change (%, negative = inhibition) at 10uM” value is reported as -1.6%. Consider `CC(C)CNC(=O)c1cccc(NC(=O)Cc2ccc(Cl)cc2)c1`, for which the “hERG current change (%, negative = inhibition) at 10uM” value came to 1.02%. With `CC(C)(C)OC(=O)NCCCCCc1cn(CC(=O)NCCCCCCCCCCC(=O)N2CCN(C(=O)OC(C)(C)C)CC2)nn1`, the “hERG current change (%, negative = inhibition) at 10uM” value is reported as 11.3%.

Take `C#CCOCCOCCOCCNc1nc(N2CCN(C(=O)[C@H](C(C)C)n3cc(CCO)nn3)CC2)nc(N2CCN(C(=O)[C@H](C(C)C)n3cc(CCO)nn3)CC2)n1`: the “hERG current change (%, negative = inhibition) at 10uM” value stood at 2.97%. For `CC(C)n1c(O)c(/C=C2\C=NN=C2c2ccccc2)sc1=S`, the “hERG current change (%, negative = inhibition) at 10uM” value turned out to be 13.9%. For `CCOc1ccc(CNC23CN4CN(CN(C4)C2)C3)cc1` the value was -7.62%; for `O=C(CN1CCN(Cc2ccc3c(c2)OCO3)CC1)Nc1ccc(F)cc1`, -81.7%; for `Nc1nnc(CSCc2ccc(Cl)cc2Cl)s1`, 0.235%.

Turning to `COc1cccc(CN2CCN(Cc3ccccc3C(F)(F)F)CC2)c1`, the “hERG current change (%, negative = inhibition) at 10uM” value was -1.24%. For `Cc1ccc(S(=O)(=O)N(Cc2ccc(F)cc2)C(=O)N2CCN(C)CC2)cc1`, the “hERG current change (%, negative = inhibition) at 10uM” value was 7.6%. `O=C(CCC(=O)Nc1ccc(Br)cc1)N/N=C/c1ccccc1F`: the “hERG current change (%, negative = inhibition) at 10uM” value worked out at 4.44%.
